# Screen size: about 340,000 compounds; about 12,000 (3.5%) were called active. This list was built around the results that the source calls inconclusive (neither active nor inactive); the mix of calls is not that of the screen. Calls follow the shape of the dose curve; as a rule, active = well fitted inhibition curve with a large enough effect; inconclusive = small, poorly fitted or top-dose-only effect, or another doubt; inactive = no such curve, though single readings can be large or run the other way. Potencies of inconclusive entries are left out as doubtful fits.
# Assay: qHTS Assay for Inhibitors of Hepatitis C Virus (HCV)
# Conditions: Huh7.5.1 HCVcc-Cre (HCVcc is cell-culture hepatitis C virus) infection, luciferase reporter, 44 h; activity change, negative = inhibition: at 41.8 µM (top of the series) unless noted
# Method in brief: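 Whole-lifecycle infectious HCVcc-Cre system; cells 1,000/well, compound then virus (~0.5 moi) added 4 h after plating, 44 h culture. Luciferase read 15 sec following 15 min substrate incubation, room temp.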
# % is scaled to controls: 0 for no effect and ±100 for the full control effect; potency is read from the fitted curve at half-maximal effect; tags tell the direction and shape of the fitted curve.
SMILES,"activity change, negative = inhibition",Potency
COC(=O)C1=C(c2ccc(OC)c(OC)c2)C[C@@H]2CC[C@H]1N2C(=O)N1CCCC1,inactive: 28.6%,
COc1ccc(Cl)cc1NC(=O)CN(C)C(=O)Cn1c(=O)oc2ccccc21,,"inconclusive [inhibitor, single point]"
O=C(CN(Cc1ccco1)C(=O)c1ccc(Cl)cc1)Nc1c(Cl)cc(Cl)cc1Cl,,"inconclusive [inhibitor, single point]"
CC(O)CNc1nc2c(c(=O)n(C)c(=O)n2C)n1CCc1ccccc1 (stereo not given),,active: 28.2 µM
CC1=C(C(=O)Nc2ccccc2C)C(c2ccccc2)NC(=O)N1 (stereo not given),inactive: 22.6%,
CCCCC(=O)Nc1cccc(NC(=O)c2ccc(Br)cc2)c1,,"inconclusive [inhibitor, partial curve]"
Oc1ccc(C=Nc2ccccc2-c2nc3ccccc3[nH]2)c(O)c1,,"inconclusive [inhibitor, full curve]"
COc1ccc(Cl)cc1NC(=O)Nc1ccc(Br)cn1,,"inconclusive [inhibitor, single point]"
COc1ccc(CN(C)C(=O)c2cccc(NC(=O)CC3SC(N4CCCCC4)=NC3=O)c2)c(OC)c1 (stereo not given),,active: 8.91 µM
CCn1c2ccccc2c2cc(NC(=O)CN(C)CC(=O)Nc3ccc(N4CCOCC4)cc3)ccc21,,active: 11.2 µM
O=C(COCc1ccccc1)N[C@@H]1c2ccccc2CC[C@H]1OCc1ccccc1,,"inconclusive [inhibitor, single point]"
COc1ccc([N+](=O)[O-])cc1NC(=O)CCCOc1ccccc1,,"inconclusive [inhibitor, partial curve]"
CCOC(=O)c1c(NC(=O)Nc2ccc(F)cc2)sc2c1CCN(C)C2,,"inconclusive [inhibitor, full curve]"
COc1ccc(OC)c(NC(=O)c2cc(-c3cc(C)ccc3O)n[nH]2)c1,inactive: -32.9%,
CCn1c(CNc2ccc(Cl)cc2)nnc1SCCN1CCCCC1,,"inconclusive [inhibitor, partial curve]"
CCc1ccc(NC(=O)Cc2c(C(=O)O)n(C)c3ccccc23)cc1,inactive: -6.01%,
O=c1c2ccccc2sc2ccccc12,,"inconclusive [inhibitor, partial curve]"
CCCOc1ccc(-c2nc(OCC)c3ccccc3n2)cc1,,"inconclusive [inhibitor, single point]"
O=C(Cn1c2[n+](c3ccc(C(F)(F)F)cc31)CCCCC2)Nc1ccccc1,,"inconclusive [inhibitor, single point]"
CC1CCCCN1C(=O)CCC(=O)Nc1nnc(C(F)(F)F)s1 (stereo not given),,"inconclusive [inhibitor, single point]"
CCc1cc(=O)oc2c(CNCc3ccc(OC)cc3OC)c(O)c(Cl)cc12,inactive: 16.8%,
Cc1cccc(NC(=O)c2cccc(N3C(=O)C4C5C=CC(C6CC56)C4C3=O)c2)c1 (stereo not given),,active: 11.2 µM
CC(C)(C)N=C1NN=C(c2ccc(Cl)cc2)CS1,,active: 10 µM

SMILES,"activity change, negative = inhibition",Potency
CC(=O)C1=C(C)NC(SCC(=O)Nc2nc3ccccc3s2)=C(C#N)C1c1ccc(Cl)cc1 (stereo not given),,"inconclusive [inhibitor, single point]"
CCNC(=S)N/N=C/c1cc(C)ccc1C,,"inconclusive [inhibitor, partial curve]"
O=C(Oc1ccc(-c2nnco2)cc1)N1CCCCC1,,inactive
COc1ccc(CSc2nc(C)cc(=O)[nH]2)cc1,inactive: 3.15%,
O=C(NC1CCCC(C(F)(F)F)C1)c1ccc([N+](=O)[O-])o1 (stereo not given),,"inconclusive [inhibitor, single point]"
CC1(c2ccccc2)NC(=O)N(CC(=O)Nc2cc(C(F)(F)F)ccc2N2CCCCC2)C1=O (stereo not given),,"inconclusive [inhibitor, single point]"
CC1CCc2c(N3CCC(O)CC3)c(F)cc3c(=O)c(C(=O)O)cn1c23 (stereo not given),inactive: 9.34%,
COc1ccc(-c2nn(-c3ccccc3)cc2/C=C/C(=O)N2CCN(c3ccccn3)CC2)cc1,,"inconclusive [inhibitor, single point]"
CC(=O)c1c2c3c(cccc3n(C)c1=O)C(=O)c1ccccc1-2,inactive: 2.5%,
O=S(=O)(c1ccccc1F)N(Cc1ccco1)Cc1nnc(-c2ccccc2Br)o1,,"inconclusive [inhibitor, single point]"
CCc1ccc(NC(=O)CSc2nnc(Cc3cccn3C)n2-c2ccc(F)cc2)cc1,,inactive
NC(=O)C1CCN(c2ncccc2[N+](=O)[O-])CC1,,"inconclusive [inhibitor, single point]"
Cc1c(C(=O)N(C)Cc2ccc(OC(F)F)cc2)oc2ccccc12,inactive: -26.5%,
CCC(C)C(=O)Nc1cc(OC)c(OC)cc1C(=O)O (stereo not given),,"inconclusive [inhibitor, single point]"
CC(=O)Oc1cc2c(cc1Cl)C(c1cccs1)CC1(CC(C)(C)NC(=S)N1)O2 (stereo not given),,"inconclusive [inhibitor, single point]"
CCCCn1c(N)c(N(CC(C)C)C(=O)COC(=O)C2(c3ccccc3)CC2)c(=O)[nH]c1=O,inactive: -5.35%,
COc1ccc2c(c1)C=C(CN1CCN(C3CCCC3)C(CCO)C1)CO2 (stereo not given),,"inconclusive [inhibitor, single point]"
CC(c1nccs1)N(C)C(=O)CCc1nnc(-c2ccc(-c3ccccc3)cc2)o1 (stereo not given),,"inconclusive [inhibitor, single point]"
O=C(CNC(=O)c1cccc(Br)c1)N/N=C/c1ccc[nH]1,,active: 3.16 µM
CC(C)N(C)S(=O)(=O)c1ccc(NC(=O)CSC(=S)N2CCCC2)cc1,,"inconclusive [inhibitor, single point]"
O=C(CN1C(=O)/C(=C\c2ccccc2Cl)Sc2ccccc21)NCCCN1CCOCC1,,"inconclusive [inhibitor, single point]"
CCn1cc(CCC(=O)NCc2cccc(OC)c2OC)c2ccccc21,,"inconclusive [inhibitor, single point]"

# Reference: PubChem BioAssay AID651820 (National Center for Advancing Translational Sciences (NCATS), 2012)
